Laboratory results: PubChem BioAssay AID485294 (National Center for Advancing Translational Sciences (NCATS), 2010)
The whole screen tested about 370,000 compounds, of which about 150 (0.041%) were called active. The inconclusive results got no clear call from the source; some entries with a clear call stand among them for comparison. The call rests on the fitted dose curve; in most records, active means well fitted inhibition curve with a large enough effect; inconclusive means small, poorly fitted or top-dose-only effect; inactive means flat fitted curve, though single readings scatter. No potency is given beside an inconclusive call; the fits are too rough.

target: Beta-lactamase (Escherichia coli (strain K12)) (UniProt P00811); experiment: qHTS Inhibitors of AmpC Beta-Lactamase (assay with detergent); conditions: AmpC hydrolysis of nitrocefin, absorbance 480 nm, 0.01% Triton; series mostly up to 114 µM; further: nearly all actives have a fitted effect of over 25% in size
Outline: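 20 mM phosphate pH 7.0 + 0.01% (detergent screen) or 0.0001% Triton X-100; 5.3 nM AmpC reagent; cpd preinc 15 min RT; nitrocefin (800 uM stock) to start; A480 q20 s × 4 min; Activity was normalised to no-enzyme and no-compound control wells.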
Potency means the concentration at half of the fitted maximal effect; tags describe the fitted curve by direction and shape.

Sequence of UniProt P00811 (P00811 whole entry, looked up): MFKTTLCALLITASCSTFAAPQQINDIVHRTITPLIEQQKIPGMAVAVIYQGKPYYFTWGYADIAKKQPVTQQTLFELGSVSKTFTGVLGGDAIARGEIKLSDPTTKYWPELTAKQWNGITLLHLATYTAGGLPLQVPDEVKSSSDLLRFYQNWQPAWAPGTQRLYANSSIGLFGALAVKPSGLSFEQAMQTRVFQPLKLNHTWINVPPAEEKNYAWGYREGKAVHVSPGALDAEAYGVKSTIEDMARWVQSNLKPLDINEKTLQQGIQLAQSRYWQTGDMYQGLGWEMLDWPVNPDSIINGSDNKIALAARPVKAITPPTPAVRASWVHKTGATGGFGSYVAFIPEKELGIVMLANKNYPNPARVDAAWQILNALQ

Q: For `Cc1ccccc1NS(=O)(=O)c1ccc(C(=O)NCC2CCCO2)cc1` (stereo not drawn), which Potency is on record?
A: inconclusive [inhibitor, partial curve, poor fit]

Q: Which Potency does the source give for `COc1ccccc1NC(=O)c1ccccc1S(=O)(=O)c1ccc([N+](=O)[O-])cc1` here?
A: inconclusive [inhibitor, partial curve]

Q: For `Cc1cc2cc(CNC(=S)NC3CCCCC3)ccc2n1C`, which Potency is on record?
A: inactive

Q: For `CO/N=C(/CNC(=O)c1ccccc1Cl)c1ccc(Cl)cc1`, which Potency is on record?
A: inconclusive [inhibitor, single point]

Q: For `CCc1nnc(SCc2cccc(Cl)c2)c2cc3sccc3n12`, which Potency is on record?
A: inactive

Q: Which Potency does the source give for `CCN(C(=O)CSc1nncn1-c1ccccc1)C1CCS(=O)(=O)C1` (stereo not drawn) here?
A: inconclusive [inhibitor, single point]

Q: With `CC(C)COC(=O)C(C#N)c1nc2ccccc2nc1N1CCN(Cc2ccccc2)CC1` (stereo not drawn) as the compound, how does the Potency read?
A: inconclusive [inhibitor, full curve, poor fit]

Q: With `CC(C)n1c(N2CCN(C(=O)c3cccs3)CC2)nc2ccccc21` as the compound, how does the Potency read?
A: inconclusive [inhibitor, full curve, poor fit]

Q: For `Cc1cc(C)n2nc(C(=O)Nc3ccc4c(c3)OCO4)cc2n1`, which Potency is on record?
A: inconclusive [inhibitor, partial curve]

Q: How did the Potency turn out when `COc1ccccc1CNc1ncnc2onc(-c3ccc(F)cc3)c12` was run?
A: inactive

Q: For `CCOC(=O)c1oc2cccc(OC(C)=O)c2c1C`, which Potency is on record?
A: inconclusive [inhibitor, full curve, poor fit]

Q: For `COc1cccc(-n2c(SCC(=O)NC(C)(C)C)nnc2-c2ccoc2C)c1`, which Potency is on record?
A: inconclusive [inhibitor, full curve, poor fit]

Q: With `COc1ccc(CCNC(=O)C(=O)NCC(c2cccs2)S(=O)(=O)c2cccs2)cc1` (stereo not drawn) as the compound, how does the Potency read?
A: inactive

Q: How did the Potency turn out when `Cc1cccc(NC(=O)Cc2nc(-c3c[nH]c(C(=O)N4CCCC4)c3)cs2)c1` was run?
A: inconclusive [inhibitor, full curve, poor fit]

Q: With `c1ccc(NC(c2ccccc2)c2ccncc2)cc1` (stereo not drawn) as the compound, how does the Potency read?
A: inactive

Q: With `Cc1cc(OC(C)C(=O)Nc2cccnc2)ccc1Cl` (stereo not drawn) as the compound, how does the Potency read?
A: inconclusive [inhibitor, single point]

Q: How did the Potency turn out when `CCOc1cccc(-c2nnc(SCC(=O)Nc3cccc(OC)c3)n2N)c1` was run?
A: inconclusive [inhibitor, partial curve, poor fit]

Q: With `CCN1CCCC1CNS(=O)(=O)c1cc(Br)cc2c1N(C(=O)C1CC1)CC2` (stereo not drawn) as the compound, how does the Potency read?
A: inconclusive [inhibitor, full curve, poor fit]

Q: `CCc1ccc(C(=O)COC(=O)[C@@H](NC(N)=O)[C@@H](C)CC)cc1` was tested. Which Potency did it give?
A: inactive

Q: Which Potency does the source give for `CCc1ccc(N2C(=O)CC(NNc3nc4ccccc4s3)C2=O)cc1` (stereo not drawn) here?
A: inactive

Q: For `COc1cc(C(=O)Oc2ccc(C(=S)N3CCOCC3)cc2)cc(OC)c1OC`, which Potency is on record?
A: inconclusive [inhibitor, partial curve, poor fit]

Q: `Cc1noc(C)c1COc1ccc(C(=O)OCC(=O)Nc2ccc3c(c2)OCO3)cc1` was tested. Which Potency did it give?
A: inactive

Q: Which Potency does the source give for `O=C(N/N=C\c1ccc(Sc2ccccn2)o1)c1cccc(Br)c1` here?
A: inconclusive [inhibitor, full curve]

Q: `Cc1ccc(C(=O)N/C(=C\c2ccccc2)C(=O)OCc2ccccc2)cc1` was tested. Which Potency did it give?
A: inconclusive [inhibitor, partial curve, poor fit]

Q: How did the Potency turn out when `COCCn1c(SC(C)C(=O)Nc2ccc(N3CCOCC3)cc2)nnc1-c1ccncc1` (stereo not drawn) was run?
A: inconclusive [inhibitor, full curve, poor fit]

Q: Which Potency does the source give for `COc1ccc2nc(SCC(=O)NC3CCCc4ccccc43)[nH]c2c1` (stereo not drawn) here?
A: inconclusive [inhibitor, full curve, poor fit]

Q: `O=C(Oc1ccccc1C(=S)N1CCOCC1)c1cccc([N+](=O)[O-])c1` was tested. Which Potency did it give?
A: inconclusive [inhibitor, single point]

Q: With `COc1ccc(-c2[nH]ncc2-c2cscn2)c(O)c1` as the compound, how does the Potency read?
A: inconclusive [inhibitor, full curve, poor fit]

Q: Which Potency does the source give for `Cc1nn(-c2ccccc2)c(C)c1NC(=O)COC(=O)Cc1cccc(C(F)(F)F)c1` here?
A: inconclusive [inhibitor, full curve]

Q: With `COc1ccc(C(=O)CSc2nc(C)cc(=O)[nH]2)cc1` as the compound, how does the Potency read?
A: inactive

Q: Which Potency does the source give for `COc1ccc(/C=N\NC(=O)c2ccccc2[N+](=O)[O-])cc1COc1c(F)c(F)c(F)c(F)c1F` here?
A: inconclusive [inhibitor, full curve, poor fit]

Q: For `O=C(CN1C(=O)COc2ccccc21)c1ccc(Cl)cc1`, which Potency is on record?
A: inconclusive [inhibitor, full curve]

Q: How did the Potency turn out when `COc1ccc(OCC(=O)N2CCC(Cc3ccccc3)CC2)cc1` was run?
A: inconclusive [inhibitor, partial curve, poor fit]

Q: For `COc1ccc(-c2nc3ccncc3[nH]2)cc1OC`, which Potency is on record?
A: inconclusive [inhibitor, full curve, poor fit]

Q: With `Cc1nn(-c2ccc(N3CCCCC3)nn2)c(C)c1CCC(=O)NCc1ccccc1` as the compound, how does the Potency read?
A: inactive

Q: Which Potency does the source give for `O=C(Cn1nc(N2CCN(c3ccccc3)CC2)ccc1=O)NCc1ccccc1F` here?
A: inactive

Q: `O=S1(=O)CCOC[C@H](CC2CCCCC2)N1Cc1ccc(F)cc1` was tested. Which Potency did it give?
A: inconclusive [inhibitor, partial curve, poor fit]

Q: With `COc1ccc2nc(SCC(O)c3cccc(Br)c3)[nH]c2c1` (stereo not drawn) as the compound, how does the Potency read?
A: inactive

Q: Which Potency does the source give for `CC(=O)c1ccccc1NC(=O)COC(=O)C1=NN(c2ccccc2)C(=O)CC1` here?
A: inconclusive [inhibitor, full curve]

Q: How did the Potency turn out when `O=C(CCCSc1nc(-c2ccco2)cc(C(F)(F)F)n1)NCC1CCCO1` (stereo not drawn) was run?
A: inactive

Q: With `CN(C)C(=O)c1cc(F)ccc1Sc1cc(Cl)ccc1Cl` as the compound, how does the Potency read?
A: inconclusive [inhibitor, partial curve, poor fit]

Q: For `CCOC(=O)c1sc(NC(=O)CNC(=O)Cn2cnc3sc(C)c(C)c3c2=O)nc1C`, which Potency is on record?
A: inconclusive [inhibitor, full curve, poor fit]

Q: How did the Potency turn out when `O=C(c1ccc(C(F)(F)F)cc1)C1CCCN(C(=O)Cn2cncn2)C1` (stereo not drawn) was run?
A: inconclusive [inhibitor, full curve, poor fit]

Q: How did the Potency turn out when `COc1ccc(CC(=O)OCCN(C)C)cc1` was run?
A: inconclusive [inhibitor, full curve, poor fit]

Q: With `Cc1cc(C)cc(NS(=O)(=O)c2cnc(Cl)c(Cl)c2)c1` as the compound, how does the Potency read?
A: inactive

Q: For `COc1ccc(OC)c(-c2nnc3n2N=C(c2ccc(OC)c(OC)c2)CS3)c1`, which Potency is on record?
A: inconclusive [inhibitor, full curve]

Q: Which Potency does the source give for `Cc1cccc(Oc2ncnc3onc(C)c23)c1` here?
A: inactive

Q: Which Potency does the source give for `COc1cc(C(C)=O)ccc1OCC(O)CN1CCN(c2ccc(C)c(C)c2)CC1` (stereo not drawn) here?
A: inconclusive [inhibitor, full curve, poor fit]

Q: For `COc1ccc(-c2nc(CSCC(=O)NC3CCCc4ccccc43)c(C)o2)cc1OC` (stereo not drawn), which Potency is on record?
A: inactive

Q: `O=c1c2ccccc2nc(N2CCCC2)n1-c1ccccc1` was tested. Which Potency did it give?
A: inconclusive [inhibitor, partial curve, poor fit]

Q: How did the Potency turn out when `CCc1nc2ccccc2n1CCCCOc1cccc(C)c1` was run?
A: inactive

Q: Which Potency does the source give for `Oc1ccc(-c2ccccc2)cc1CN1CCCCCC1` here?
A: inactive

Q: How did the Potency turn out when `CCCN1CCN(C(=O)C(C)n2nc(C)c3sc4ccccc4c3c2=O)CC1` (stereo not drawn) was run?
A: inconclusive [inhibitor, full curve, poor fit]

Q: `COc1ccccc1N1CCN(CCCNC(=O)C2CCCN(c3ncnc4c3nc3n4CCCCC3)C2)CC1` (stereo not drawn) was tested. Which Potency did it give?
A: inactive

Q: `O=C(NC1CCC(CC2CCC(NC(=O)C(Cl)Cl)CC2)CC1)C(Cl)Cl` (stereo not drawn) was tested. Which Potency did it give?
A: inactive

Q: How did the Potency turn out when `O=C(Nc1ccccc1C(F)(F)F)N1CCN(c2ccccn2)CC1` was run?
A: inconclusive [inhibitor, partial curve]

Q: For `CC1Cc2nc(SCC(N)=O)n(C)c(=O)c2S1` (stereo not drawn), which Potency is on record?
A: inconclusive [inhibitor, full curve, poor fit]

Q: With `O=C(Nc1ccc(F)cc1F)N1CCN(C/C=C/c2ccccc2)CC1` as the compound, how does the Potency read?
A: inconclusive [inhibitor, full curve, poor fit]

Q: Which Potency does the source give for `CC1(C(=O)NCc2ccccn2)C=CCN1C(=O)c1ccccc1` (stereo not drawn) here?
A: inactive

Q: How did the Potency turn out when `O=C(O)C1Nc2c(Cl)cc(Cl)cc2C2C=CCC12` (stereo not drawn) was run?
A: inconclusive [inhibitor, partial curve]

Q: How did the Potency turn out when `O=[N+]([O-])c1ccccc1/C=C/c1ccc2ccccc2n1` was run?
A: inconclusive [inhibitor, partial curve, poor fit]

Q: With `COc1cccc(-c2cc(C(=O)N/N=C/c3ccc(OC)c(COC(C)=O)c3)c3ccccc3n2)c1` as the compound, how does the Potency read?
A: inconclusive [inhibitor, partial curve, poor fit]

Q: `Cn1nccc1C(=O)N1CCc2ccccc21` was tested. Which Potency did it give?
A: inconclusive [inhibitor, partial curve]

Q: How did the Potency turn out when `COc1cc(NC(=S)NCc2ccc(S(N)(=O)=O)cc2)c(OC)cc1Cl` was run?
A: inconclusive [inhibitor, partial curve]

Q: `CC(=O)Nc1ccc(SCC(=O)Nc2ccccc2Oc2ccccc2)cc1` was tested. Which Potency did it give?
A: inconclusive [inhibitor, full curve, poor fit]

Q: `COc1cccc(C(=O)O/N=C(\N)Cc2ccc(Cl)cc2)c1` was tested. Which Potency did it give?
A: inconclusive [inhibitor, full curve]

Q: How did the Potency turn out when `O=C(Cn1nnc(-c2ccccc2)n1)Nc1cccc(S(=O)(=O)N2CCCC2)c1` was run?
A: inconclusive [inhibitor, full curve]

Q: For `Cc1ccc(CN2c3ccccc3-c3nc(SCC(=O)NCCc4ccccc4)ncc3S2(=O)=O)cc1`, which Potency is on record?
A: inactive
